Where “and” joins values, the source holds several entries; their conditions need not be identical. Equal entries are not always repeated.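 Results reflect a 48-hour exposure of cells in 96-well plates to compound at five concentrations. The concentration for 50% growth inhibition is given as GI50. Definition used: TGI = concentration required for complete inhibition of growth.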
test system: NCI-H322M lung; experiment: NCI-60 cell line screen, 48 h

SMILES | TGI | GI50
COc1cccc(-c2cc(=O)c3cc(N(C)C)ccc3[nH]2)c1 | 8.51 µM and 47.2 µM | 
O=C(CN1CCOCC1)Nc1ccc(Cn2nnc3c2C(=O)c2nnn(Cc4ccc(NC(=O)CN5CCOCC5)cc4)c2C3=O)cc1 | 5.09 µM | 0.56 µM
CC(C)c1ccc2[nH]c(O)c(-c3[nH]c4ccccc4c3N=O)c2c1 | 18.5 µM | 
C[C@]12CC[C@H](O)CC1=CC[C@@H]1[C@@H]2CC[C@]2(C)C(c3cccnc3)=CC[C@@H]12 | > 100 µM | > 100 µM
COc1ccc(-c2cc(-c3ccco3)c(C#N)c(=S)n2C2OC(COC(C)=O)C(OC(C)=O)C(OC(C)=O)C2OC(C)=O)cc1 (centres undefined) | 32.4 µM | 
COc1ccc(-n2c(=O)c3[nH]cnc3n(-c3ccc(OC)cc3)c2=S)cc1 | > 100 µM | 
COc1cccc(/C=N/NC(=O)c2ccccc2Nc2ccnc(C(F)(F)F)c2)c1O | > 100 µM | 0.375 µM
CC1CCC2(C(=O)O)CCC3(C)C(=CCC4C5(C)CC(O)C(O)C(C)(CO)C5C(O)CC43C)C2C1C (centres undefined) | > 100 µM | 
O=C(CCCCCCCCC(=O)NN1C(=O)/C(=C\c2ccc(O)c(O)c2)SC1c1ccc(Cl)cc1)NN1C(=O)/C(=C\c2ccc(O)c(O)c2)SC1c1ccc(Cl)cc1 (centres undefined) | 54.1 µM | 
CC[C@]1(Cc2ccc(OC)c(OC)c2)CN(S(=O)(=O)c2ccc(C)cc2)C[C@@H]1OC(C)=O | > 100 µM | 
CN(CCC#N)c1ccc(/C=C2\SC(=S)NC2=O)cc1 | > 100 µM | 
